According to article PMC12136788:
The list shows a part of the results.

T1: UNK ZnF1-3 (human, UniProt Q9C0B0 31-174)
T1 sequence: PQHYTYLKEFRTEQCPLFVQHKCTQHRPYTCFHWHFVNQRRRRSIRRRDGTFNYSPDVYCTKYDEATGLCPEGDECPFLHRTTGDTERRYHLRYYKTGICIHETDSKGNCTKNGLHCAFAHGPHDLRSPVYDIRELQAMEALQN

B1: chr1:109605286:109605287:-_ENSG00000197780_ENST00000461096|hu_mus|hu_hu_hu_mus_True|68_108 (ssRNA)
RNA: GGGAGUUCUACAGUCCGACGAUCAAGAACAAUAACAACAUUCAGUAACCUCUUUAAAUGCAAUUAUCCUUACUUUAAGCUAAGCAGAAUAAUAAUUUAAUACCGUAAGUGAACUACACACAAAGCCUGAACCGCGAAAAUGGUCAACAGAGGAUUGAGCAUCA
B2: 102284419_102284539_9320_CDS_ENSMUSG00000043940_ENSMUST00000053177|mouse|control|control (ssRNA)
RNA: GGGAGUUCUACAGUCCGACGAUCCUGGCCGAAGUUGUUAAUGAACCCGAUGGUGGCCGUCUCCUUCAGUGGGUCGUUGAUGUUGUAGAUAUCCACUUGCCCCUCAUAAAAAAGGUGAUGGAAGACAUUCACAGCCUCUACGGCCAACAGAGGAUUGAGCAUCA
B3: chr12:39756943:39756944:-_ENSG00000139116_ENST00000544797|hu_mus|hu_hu_hu_mus_False|28_38 (ssRNA)
RNA: GGGAGUUCUACAGUCCGACGAUCGGUUUGGCUGUUACCCCCAAGGGAAUCCUGCAAGAGUCUUGUCAGCUUAGAGUCUCUGUAAGGGACAUGGGUGGCCCUCUUGCUCUUGUCUCCCAAGGCGCUGAUUACAUUCCCAAGAGCCAACAGAGGAUUGAGCAUCA
B4: chr1:58468927:58468928:-_ENSMUSG00000026034_ENSMUST00000148330|mus_mus|mus_mus_mus_hu_False|78_108 (ssRNA)
RNA: GGGAGUUCUACAGUCCGACGAUCAAUCUAUAAUUACGAUGUUCAUUACCUUAGCUAGGCCAUGUAUGAACCAAAUUACCCAAACAAAAUAAACAUGGCAAUAUAAAAAUGUUAAGAAUUUACAAAGCUGUACAAAAUAACUUACAACAGAGGAUUGAGCAUCA
B5: chr4:41262718:41262719:+_ENSG00000154277_ENST00000284440|perfect_dup|motif|central (ssRNA)
RNA: GGGAGUUCUACAGUCCGACGAUCCCCGAUGGUACCACAGGAGUUUCCGAUGGUCUGCUUCAUGAAGUAAACUUUAGGGCGGACUUCCUGUCCCUUCAGUUCCUCAAUUUGCUUUUUCCUGAAGUUUUCAUGCUGGGCCGUGAGCAACAGAGGAUUGAGCAUCA
B6: chr11:2981123:2981124:-_ENSG00000205531_ENST00000380542|hu_hu|motif|central (ssRNA)
RNA: GGGAGUUCUACAGUCCGACGAUCCUUGUAGGUUUUUGUCAGGACUGAGUUGGUAAAGUAGUCGUUGGGUUCAAAGUGGAACUCGGACACAAAAGACAUAGGCUGUCCAGGGUCAGAAAAUUUCACUUUAAUAUCCUGCAGGUGCAACAGAGGAUUGAGCAUCA
B7: 56100042_56101346_1441_CDS_ENSG00000126777_ENST00000438792|human|control|control (ssRNA)
RNA: GGGAGUUCUACAGUCCGACGAUCCUUCUUUUGGACUUCCUCUUGCUGUAGCUUUCCUGUUUUCUCAGUCAGCUCAUUCACCAACCUAGCAUAAUCCUGGCGUAGUUUAUUUAGUUCUGCAGACUGCUUGCUUUCCAGUUGAUUCAACAGAGGAUUGAGCAUCA
B8: chr19:8913615:8913616:-_ENSMUSG00000071658_ENSMUST00000096259|mus_hu|mus_mus_mus_hu_False|78_78 (ssRNA)
RNA: GGGAGUUCUACAGUCCGACGAUCAGGGUACCAAAACCUUCUGCCUGAAAUGGGUGCCCCACCCUGCAGGGAGUUGCAGCUGAAAGUAUCUGAUGCAGAAGCAGUGACUAUACGAAAGGAGGCCCCUGGGGAGGGCCAGGCCAGCAACAGAGGAUUGAGCAUCA
B9: chr21:38595834:38595835:-_ENSG00000157538_ENST00000309117|hu_mus|motif|central (ssRNA)
RNA: GGGAGUUCUACAGUCCGACGAUCAUCAAAGAUGACUUUUCCUUAGACUCACUAGAAAGUACGGCCCACAUUUUUUGGGUACGGGAUUGUUUAAAUAUAACAAGGAUAAGUAUGACAAAGCAAAAGUACAUUCUCUGGGAACUCCAACAGAGGAUUGAGCAUCA
B10: chr6:41757443:41757444:+_ENSG00000214736_ENST00000398881|hu_mus|hu_hu_hu_mus_False|48_88 (ssRNA)
RNA: GGGAGUUCUACAGUCCGACGAUCGAACCGUGCAGAGGCAACAUCUCGGAAUUCUGCGGGGGAUGGGGGGGCAGUGGGGGGGGGUUCAGGGAAGGGGAGGGAGUCAACUUCAGCUGCCACUCAGGUAGGAUCUUGUGGUCACAGCAACAGAGGAUUGAGCAUCA
B11: 149574919_149575039_456_5pUTR_ENSMUSG00000041658_ENSMUST00000039720|mouse|control|control (ssRNA)
RNA: GGGAGUUCUACAGUCCGACGAUCCAGAUUCUUCCAUCGUGCAACAAGUCCUUCACAGUGCCUUCUAAAUCCGCAGUACCGUUCUUCUGGCUCACCUGCCUACGCUCAGCACCCAGGGCCCGCGGGGCCUGAUCUAUCCCUGCCCAACAGAGGAUUGAGCAUCA
B12: chr7:149068622:149068623:-_ENSMUSG00000025139_ENSMUST00000001950|mus_hu|mus_mus_mus_hu_False|28_108 (ssRNA)
RNA: GGGAGUUCUACAGUCCGACGAUCGUGCAGGUACUGAGUGUGGCUUGUGGUCUGUCCUGGGUUAGAGUUGUUAAUAUCACGGAACAUACCAUCUAGAACGUUCCAGUCUGCCUGACUACCUUCAUUCCCAAUGGAGAAGAAAUCCAACAGAGGAUUGAGCAUCA
B13: chr10:82349929:82349930:+_ENSMUSG00000020250_ENSMUST00000020484|mus_hu|FALSE|FALSE (ssRNA)
RNA: GGGAGUUCUACAGUCCGACGAUCAUAACAUUUGUUGUUAUCUCUUGACGGAAUCGUCCAUUCCAAUGGCCAAAAGUAACUAUGGUAAACCUCAAUAUUUUCUUCCCCAAACUUCUCCACAGCUUUCUCCUCAGAAAGGCCACACAACAGAGGAUUGAGCAUCA
B14: 4497865_4497985_244_3pUTR_ENSMUSG00000004961_ENSMUST00000065957|mouse|control|control (ssRNA)
RNA: GGGAGUUCUACAGUCCGACGAUCAGGUGUCUUAGGCGCUGGAGACCCCAGGGUCGGGGGUUCCGGGAACAUGGCGUCGGGGUCCUGCGGUGCUUCCUGCAGAGGUACCCAAAUACUCUAUCCCCACCCCACCCCACUCCUACCCAACAGAGGAUUGAGCAUCA
B15: chr8:95530139:95530140:-_ENSG00000164944_ENST00000437199|hu_mus|FALSE|FALSE (ssRNA)
RNA: GGGAGUUCUACAGUCCGACGAUCGACACCGCUGGAAGACUGAGCCACCACCAGCGUGAGUACGCAUGCGUAAUUAUAAGCUACUGACUUCUUAGACUUGGAAUCGCCUAGGGCUUCUUUGGAAUAGUACUCCAUUAGAGUAAUCAACAGAGGAUUGAGCAUCA
B16: 197562579_197566197_1241_3pUTR_ENSG00000186001_ENST00000438796|human|control|control (ssRNA)
RNA: GGGAGUUCUACAGUCCGACGAUCUGAACCCUCAUGAGAGAUUCGCCGCUGUUCAAUAUACGCCAUAAACUGUGAACUAAGGCUGUCUGGGUCUGGUCCCUUGGGCUGUCUCACCUCGGCCUCCUCUUCCUCUGCGGUGCAGCUCAACAGAGGAUUGAGCAUCA
B17: chr12:72289710:72289711:+_ENSMUSG00000034601_ENSMUST00000129376|mus_hu|FALSE|FALSE (ssRNA)
RNA: GGGAGUUCUACAGUCCGACGAUCAGGUGAGUUAGGGUUCUCUUCUUCCAGUGGCAGGUCUCCAUCACCCCAUGGCUUGGGAAGCUCUGGGCUUGAUACCUUCAAUUUAUCAAUGGAAAUAUCUGACAAAGUUGGGGUAAAAACCAACAGAGGAUUGAGCAUCA
B18: chr9:14812383:14812384:-_ENSMUSG00000031934_ENSMUST00000164273|mus_mus|mus_mus_mus_hu_True|98_108 (ssRNA)
RNA: GGGAGUUCUACAGUCCGACGAUCAUAGCUCAAGUAGAUACAUGCCAACAGUAUAAUGAUGAGUGUCAGCAGGCGGCAGCUAAUGUACUUGAUGAUUAAAUUAUUAGAAUUUUUCUUUGUCUUCAAGUACUGCUCCACAAUUGGCAACAGAGGAUUGAGCAUCA
B19: 110815297_110815417_1300_CDS_ENSG00000196510_ENST00000455511|human|control|control (ssRNA)
RNA: GGGAGUUCUACAGUCCGACGAUCUUCAAGACAAACGGUGGCUAAAAGGGUAAGGGUCUGUGCAUUUGCUCCCAGAGUUUUGUAAACGUUGUUAGCCAUUACCAUUGCUUCUCGAAUACUGUUGGAGGCUAAGUAACAUUCGAUCAACAGAGGAUUGAGCAUCA
B20: chr2:219093530:219093531:+_ENSG00000163466_ENST00000315717|hu_mus|FALSE|FALSE (ssRNA)
RNA: GGGAGUUCUACAGUCCGACGAUCCACUCUCUUUAACAACUCAUCAGCUCCAUGUGCCUGAAGUUCCUUGUAGAAUUUCAAAGAAAUACUGACCAUCACUUUUGUUUUGUCUCCAUUAGGAUUUGAAAUAUGAUAAAGGACGCCCAACAGAGGAUUGAGCAUCA
B21: chr3:45748292:45748293:+_ENSG00000211456_ENST00000389061|hu_hu|motif|central (ssRNA)
RNA: GGGAGUUCUACAGUCCGACGAUCUGCUUUCCAGACUACAUGACUGAAAAAUUCACCUACUUUUAUCUUUUUGGUAAUGACGGUAAGAUAAUUACCUGCCACCAGAUGGAUUGUGCCCAGUAUACCAAAUAUUGGUCUUGUGACCAACAGAGGAUUGAGCAUCA
B22: chr3:10015032:10015033:+_ENSMUSG00000027533_ENSMUST00000029046|mus_mus|mus_mus_mus_hu_True|28_58 (ssRNA)
RNA: GGGAGUUCUACAGUCCGACGAUCGUUUUUACCAUCACAAGUGAUGAUACAAUCUGGCUUGGCCAUUGCGCCCAUUUUCCUAAGAGCUAUUCCCACUCCUAGCUCCUUCAUGUACUCAUCAAAGCCUUUGCUGUCCACCAGGCGCAACAGAGGAUUGAGCAUCA

molecular target: T1, UNK ZnF1-3; experiment: nsRBNS (natural sequence RNA bind-n-seq); RBNS binding buffer (assumed for nsRBNS): 25 mM Tris pH 7.5, 150 mM KCl, 3 mM MgCl2, 0.01% Triton X-100, 500 ug/ml BSA, 20 U/ml SUPERase-In, 4 C; UNK is unkempt and MSI1 is Musashi-1; names of the RNAs are library labels; protein concentration not given here; high values mean tight binding

Which binding signal does the source give for B1 here?
Its binding signal is 0.865 enrichment R.

B2 was tested. Which binding signal did it give?
The binding signal was 1.15 enrichment R.

How did the binding signal turn out when B3 was run?
Its binding signal is 0.802 enrichment R.

Which binding signal does the source give for B4 here?
The binding signal was 0.582 enrichment R.

For B5, which binding signal is on record?
Its binding signal is 0.827 enrichment R.

How did the binding signal turn out when B6 was run?
The binding signal was 1.1 enrichment R.

How did the binding signal turn out when B7 was run?
The binding signal was 0.305 enrichment R.

With B8 as the binder, how does the binding signal read?
Its binding signal is 1.34 enrichment R.

How did the binding signal turn out when B9 was run?
The binding signal was 1.38 enrichment R.

For B10, which binding signal is on record?
Its binding signal is 0 enrichment R.

B11 was tested. Which binding signal did it give?
The binding signal was 0.913 enrichment R.

For B12, which binding signal is on record?
Its binding signal is 0.859 enrichment R.

With B13 as the binder, how does the binding signal read?
Its binding signal is 1.02 enrichment R.

Which binding signal does the source give for B14 here?
The binding signal was 0.875 enrichment R.

For B15, which binding signal is on record?
The binding signal was 1.15 enrichment R.

B16 was tested. Which binding signal did it give?
The binding signal was 0.77 enrichment R.

B17 was tested. Which binding signal did it give?
The binding signal was 1.15 enrichment R.

Which binding signal does the source give for B18 here?
The binding signal was 1.02 enrichment R.

For B19, which binding signal is on record?
Its binding signal is 0.993 enrichment R.

How did the binding signal turn out when B20 was run?
Its binding signal is 1.67 enrichment R.

For B21, which binding signal is on record?
Its binding signal is 2.03 enrichment R.

For B22, which binding signal is on record?
The binding signal was 0.643 enrichment R.
